Source: PubChem BioAssay AID1347165 (National Center for Advancing Translational Sciences (NCATS), 2019)
Among all 220,000 compounds or so, about 5,700 (2.6%) were called active. Inconclusive means that the source gave no clear call. Such entries were picked first, then a sample of the others. Calls follow the shape of the dose curve; as a rule, active = well fitted inhibition curve with a large enough effect; inconclusive = small, poorly fitted or top-dose-only effect; inactive = no such curve, though single readings can be large or run the other way. Potencies of inconclusive entries are doubtful fits and often do not repeat.

Biological target: Lysine-specific demethylase 5B (Homo sapiens) (UniProt Q9UGL1)
UniProt Q9UGL1, sequence (Q9UGL1 whole entry, looked up): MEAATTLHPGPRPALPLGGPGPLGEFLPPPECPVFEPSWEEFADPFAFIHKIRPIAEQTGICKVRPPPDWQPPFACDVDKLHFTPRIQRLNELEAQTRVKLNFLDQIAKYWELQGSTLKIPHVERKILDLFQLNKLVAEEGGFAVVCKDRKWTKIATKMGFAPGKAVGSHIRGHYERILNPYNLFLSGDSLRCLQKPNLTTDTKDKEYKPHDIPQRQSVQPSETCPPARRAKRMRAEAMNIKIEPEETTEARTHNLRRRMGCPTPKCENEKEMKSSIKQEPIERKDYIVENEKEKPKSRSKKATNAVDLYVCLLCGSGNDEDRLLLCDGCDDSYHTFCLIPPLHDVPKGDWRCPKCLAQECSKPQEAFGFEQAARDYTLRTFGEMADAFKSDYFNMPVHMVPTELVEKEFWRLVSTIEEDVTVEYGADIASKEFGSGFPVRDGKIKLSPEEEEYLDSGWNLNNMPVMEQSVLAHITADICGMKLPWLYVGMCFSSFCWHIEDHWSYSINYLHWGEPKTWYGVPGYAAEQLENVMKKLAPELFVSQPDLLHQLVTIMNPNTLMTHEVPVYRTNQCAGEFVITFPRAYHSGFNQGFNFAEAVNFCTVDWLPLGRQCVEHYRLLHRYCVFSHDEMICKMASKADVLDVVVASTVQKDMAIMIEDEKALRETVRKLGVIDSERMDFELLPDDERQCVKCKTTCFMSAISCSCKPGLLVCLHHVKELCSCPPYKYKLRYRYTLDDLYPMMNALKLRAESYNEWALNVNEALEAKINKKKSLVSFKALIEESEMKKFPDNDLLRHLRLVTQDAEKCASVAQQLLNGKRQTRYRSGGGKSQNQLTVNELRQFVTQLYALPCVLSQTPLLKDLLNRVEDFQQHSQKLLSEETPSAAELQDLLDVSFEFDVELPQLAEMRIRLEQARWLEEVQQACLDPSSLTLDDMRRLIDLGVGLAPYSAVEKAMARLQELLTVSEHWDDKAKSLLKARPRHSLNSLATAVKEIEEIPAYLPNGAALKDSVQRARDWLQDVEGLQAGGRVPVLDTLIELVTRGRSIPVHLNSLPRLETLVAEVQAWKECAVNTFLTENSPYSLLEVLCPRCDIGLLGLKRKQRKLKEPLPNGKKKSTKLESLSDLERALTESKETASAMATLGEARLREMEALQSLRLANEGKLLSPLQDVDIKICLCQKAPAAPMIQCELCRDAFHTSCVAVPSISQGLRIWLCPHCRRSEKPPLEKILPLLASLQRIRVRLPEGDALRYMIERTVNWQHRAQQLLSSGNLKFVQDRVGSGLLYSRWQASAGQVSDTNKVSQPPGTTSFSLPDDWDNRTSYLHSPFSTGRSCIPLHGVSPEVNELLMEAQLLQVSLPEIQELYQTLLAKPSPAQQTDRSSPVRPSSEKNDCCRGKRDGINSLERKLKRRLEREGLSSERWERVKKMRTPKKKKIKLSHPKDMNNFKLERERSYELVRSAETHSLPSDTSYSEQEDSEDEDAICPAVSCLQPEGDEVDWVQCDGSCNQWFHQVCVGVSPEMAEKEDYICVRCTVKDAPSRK
Assay: Primary screen for KDM5B Histone Demethylases FDH-coupled qHTS; also: nearly all actives have a fitted effect of over 70% in size; as to activity change, negative = inhibition: 0% is about no effect
Conditions: FDH-coupled NADH fluorescence (FDH is formaldehyde dehydrogenase); activity change, negative = inhibition: at 57.7 µM (top of the series) unless noted
Method in brief: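 qHTS format, multiple compound concentrations. Buffer 50 mM HEPES pH 7.5/0.01% Tween-20; 200 nM KDM5BΔAP final; 10 min compound preincubation; substrate-mix levels 12.5 µM peptide, 25 µM α-KG, 0.25 mM NAD⁺; 30 min RT; ΔRFU.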
Potency is read from the fitted curve at half-maximal effect; tags tell the direction and shape of the fitted curve.

Structure (SMILES)	Potency	activity change, negative = inhibition
COc1ccccc1/C=C/C=N/NC(=O)c1cc(-c2ccc(C)o2)[nH]n1	inconclusive: 39.8 µM [inhibitor, single point]	–
O=C(NC1CCCCC1)N1Cc2[nH]cnc2C[C@H]1c1nc(-c2ccc(Cl)cc2)no1	inconclusive: 39.8 µM [inhibitor, partial curve, poor fit]	–
COc1ccc(-c2nnc3ccc(SCc4ccco4)nn23)cc1	inconclusive: 31.6 µM [inhibitor, single point]	–
CCOc1ccccc1NC(=O)N1CC2CC(C1)[C@H]1CCCC(=O)N1C2 (stereo not given in full)	inactive	–
COc1cccc(CN[C@@H]2CCC[C@@H](C(=O)NC3CC3)CC(=O)N(C)C2)c1	inactive	–
CCCn1nc(C(=O)N2CCCC2c2cccs2)c2ccccc2c1=O (stereo not given)	inactive	–
COc1ccccc1C(=O)Oc1c(Sc2ccccc2)c(C)nn1-c1ccccc1	inconclusive: 14.1 µM [inhibitor, partial curve, poor fit]	–
Cc1cn2nc(C(=O)NCc3ccccc3F)cc2c(N(C)Cc2ccccc2)n1	active: 14.1 µM	–
COc1ccc(S(=O)(=O)N(CC(=O)Nc2ccccc2Cl)Cc2ccccc2)cc1	inactive	–
CCOc1ccc(S(=O)(=O)Nc2cccc(OC)c2)c2cccnc12	inconclusive: 31.6 µM [inhibitor, partial curve, poor fit]	–
COc1ccc(/C=C2\Cc3ccccc3C2=O)cc1OC	inconclusive: 31.6 µM [inhibitor, single point]	–
COCCNc1ncc(-c2cccc(F)c2)c2c1OCC2	inconclusive: 31.6 µM [inhibitor, partial curve, poor fit]	–
COCCN1C(=O)C(=O)/C(=C(/O)c2ccc(S(=O)(=O)N3CCOCC3)cc2)C1c1cccc(O)c1 (stereo not given)	inconclusive: 25.1 µM [inhibitor, partial curve, poor fit]	–
Cc1ncsc1CN1CCc2nc(N3CCN(C)CC3)sc2C1	inconclusive: 15.8 µM [inhibitor, partial curve]	–
O=C(O)c1ccc(N/N=C/c2cn(Cc3ccccc3F)c3ccccc23)cc1	inconclusive: 35.5 µM [inhibitor, partial curve, poor fit]	–
CCOC(=O)CSc1nc2cc(OC)c(OC)cc2c2nc(-c3ccccc3)nn12	–	inconclusive: -30.8% [inhibitor]
N#CC(C(=O)CCC1CCCC1)C(=O)NCc1ccccc1 (stereo not given)	inactive	–
CCc1noc(-c2ccn3c(CNC(=O)CCc4cccc(OC)c4)nnc3c2)n1	active: 28.2 µM	–
Cc1cc(NC(=O)c2cc(Cl)ccc2Cl)ccc1-c1cc2ccccc2oc1=O	inconclusive: 2 µM [inhibitor, full curve, poor fit]	–
CCOC(=O)C1=C(C)N=C2SCCC(=O)N2C1c1ccc(OCc2ccccc2)c(OC)c1 (stereo not given)	inconclusive: 22.4 µM [inhibitor, single point]	–
O=C1CCN(Cc2ccc(C(F)(F)F)cc2)CCCCCCN1	inactive	–
Cc1cc(CN2CCC3(CC2)CN(c2ncccn2)CC3CO)n(C)n1 (stereo not given)	active: 31.6 µM	–
Cc1cc(C)nc(NC(c2ccsc2)c2cc(C)sc2NC(=O)c2ccco2)n1 (stereo not given)	inactive	–
N#CC(Cc1cccnc1)C(=O)Nc1ccccc1Br (stereo not given)	inactive	–

Structure (SMILES)	Potency	activity change, negative = inhibition
CC(C)Oc1ccc(/C(O)=C2\C(=O)C(=O)N(c3nccs3)C2c2cccc(Br)c2)cc1 (stereo not given)	inactive	–
CCn1c2c(c(=O)n3ncc(C(=O)N4CCN(c5ccc(C(C)=O)cc5)CC4)c13)CN(Cc1ccc(OC)cc1)CC2	inconclusive: 25.1 µM [inhibitor, single point]	–
CCOC(=O)c1ccc(NC(=O)Cn2c(C)cc3nc4n(c(=O)c32)CCCCC4)cc1	inactive	–
CCC(CNC(=O)c1ccc2c(c1)NC(=O)CS2)c1ccccc1 (stereo not given)	inactive	–
CCOC(=O)c1ccc(NC(=O)C(C)Sc2nc(=O)cc(N)n2CCc2ccccc2)cc1 (stereo not given)	inconclusive: 15.8 µM [inhibitor, partial curve, poor fit]	–
COc1ccc(OCC(=O)N(Cc2sccc2C)C2CCS(=O)(=O)C2)cc1 (stereo not given)	inconclusive: 22.4 µM [inhibitor, partial curve, poor fit]	–
CCOC(=O)c1cc(NC(=O)C(C)CC)cc(C(=O)OCC)c1 (stereo not given)	inactive	–
CCCc1cc(=O)[nH]c(-n2nc(C)cc2NC(=O)Cc2ccccc2)n1	inactive	–
COc1ccc(-c2nc3scc(CCNS(=O)(=O)c4ccc(Oc5ccccc5)cc4)n3n2)cc1	inconclusive: 28.2 µM [inhibitor, partial curve, poor fit]	–
CCN(CC)CCCNC(=O)c1cn(CC(C)C)c(=O)c2c1c1ccccc1n2C	inconclusive: 11.2 µM [inhibitor, partial curve, poor fit]	–
CN(C)c1ccc(CN2CCCC3(C2)C(=NC2CCCC2)NC(=O)N3c2cc(F)cc(F)c2)cc1 (stereo not given)	inconclusive: 63.1 µM [inhibitor, partial curve, poor fit]	–
Cc1ccc2nc(-c3ccsc3)c(Nc3ccc(Cl)cc3)n2c1	inconclusive: 8.91 µM [inhibitor, partial curve, poor fit]	–
O=C(Nc1cccc(C(F)(F)F)c1)c1nc2ccccc2nc1N1CCOCC1	inactive	–
CN1CC(=O)N(C2CCC2)Cc2c(NCc3ccc(F)cc3)ncnc21	inconclusive: 79.4 µM [inhibitor, partial curve, poor fit]	–
COc1ccccc1Nc1c2c(nc3ccc(NC(=O)c4ccccc4F)cc13)CCCC2	inconclusive: 31.6 µM [inhibitor, partial curve, poor fit]	–
COc1ccc(/C=C(\C#N)c2nc3ccccc3[nH]2)cc1I	inactive	–
Cc1cccnc1CNC[C@H]1O[C@@H]2C[C@@H](CC(=O)N3CCOCC3)O[C@@H]2[C@@H]1O	inconclusive: 20 µM [inhibitor, partial curve]	–
Cc1ccccc1Cn1cc(CN2[C@H](Cc3ccccc3)COc3cc(Br)ccc3S2(=O)=O)nn1	inactive	–
COc1ccc(-c2noc(-c3cccc(NC(=O)C4CC(=O)N(c5ccc(OC)cc5)C4)c3)n2)cc1 (stereo not given)	inactive	–
Cc1ccc(C2C(C#N)=C(N)Oc3c2ccc2ccccc32)cc1 (stereo not given)	inconclusive: 5.62 µM [inhibitor, full curve, poor fit]	–
COc1ccc(CCNC(=O)C2(C)CCOCC2)cc1	inactive	–
Cc1c(C)n(CCc2ccccc2)c2ncnc(NN)c12	inconclusive: 4.47 µM [inhibitor, partial curve, poor fit]	–
O=C(NCc1ccccc1Cl)c1c2c(nc3ccccc13)C(=O)N(C1CCCCC1)C2	inconclusive: 17.8 µM [inhibitor, partial curve, poor fit]	–
COc1cc(/C=C(/C#N)c2ccccn2)cc(OC)c1OC(F)F	inactive	–

Structure (SMILES)	Potency	activity change, negative = inhibition
COCC1CN(C(C)=O)CC12CCN(Cc1cccc(C#N)c1)CC2 (stereo not given)	inconclusive: 39.8 µM [inhibitor, partial curve, poor fit]	–
CCCCCCNCCN1CCOCC1	inactive	–
O=C1CCC(C(=O)N2CCc3ccc(S(=O)(=O)Nc4cccnc4)cc3C2)=NN1	inconclusive: 35.5 µM [inhibitor, partial curve, poor fit]	–
COc1cccc(-c2ncc(CNC(=O)C3NCCc4[nH]cnc43)s2)c1 (stereo not given)	active: 20 µM	–
O=C(Cn1nc(-c2ccc(Cl)cc2)c2ccccc2c1=O)Nc1cccc(C(F)(F)F)c1	inconclusive: 35.5 µM [inhibitor, single point]	–
CC1(c2ccccc2)N(Cc2ccccc2)C(=O)OC12CCN(Cc1ccncc1)CC2 (stereo not given)	inactive	–
N#CC1CCN(C(=O)c2nc(-c3cccc(C(F)(F)F)c3)c3cnccn23)CC1	active: 25.1 µM	–
Cc1ccccc1-c1cnc2[nH]cc(CC(=O)NCc3ccco3)c2c1	inconclusive: 28.2 µM [inhibitor, single point]	–
COC(=O)C1=C(N)N(c2cccc(C)c2)C2=C(C(=O)CCC2)C1c1ccc2c(c1)OCO2 (stereo not given)	inactive	–
CC1CCN(S(=O)(=O)c2ccc3nc(NCc4ccccc4)ccc3c2)CC1	inconclusive: 31.6 µM [inhibitor, partial curve, poor fit]	–
COc1ccc(C(CNC(=O)c2oc3cc(C)c(Cl)cc3c2C)N2CCCCC2)cc1 (stereo not given)	inactive	–
COc1ccc(S(=O)(=O)N2C[C@@H]3C[C@H](C2)c2c(-c4ccc(NC(C)=O)cc4)ccc(=O)n2C3)cc1	inconclusive: 20 µM [inhibitor, single point]	–
Cc1cc(C)cc(Nc2nc(C)cc(=O)n2CC(=O)Nc2cccc(C#N)c2)c1	active: 28.2 µM	–
O=C(CCn1cnc2sc3c(c2c1=O)CCCC3)NCc1cccc(CN2CCCCCC2)c1	inactive	–
CCC(=O)N1CCC(CC)(N2CCN(S(=O)(=O)c3ccccc3C(F)(F)F)CC2)C1 (stereo not given)	inactive	–
Cc1c(Cl)cccc1NC(=O)Cn1ccn2nc3c(c2c1=O)CCCCC3	inconclusive: 39.8 µM [inhibitor, single point]	–
Cc1noc(C)c1CS(=O)(=O)c1ccc(F)cc1	inactive	–
Cc1ccc(-c2nnc3ccc(N(C)CCN(C)C)nn23)nc1	inconclusive: 35.5 µM [inhibitor, partial curve]	–
O=C(CCl)Nc1ccc2c(c1)CCC2	inactive	–
O=C(CCSCc1cnn(-c2ccccc2)c1-n1cccc1)NCc1ccccc1Cl	inconclusive: 17.8 µM [inhibitor, partial curve, poor fit]	–
COc1ccc(/C=N/NC(=O)c2cccc3ccccc23)c(OC)c1OC	inconclusive: 39.8 µM [inhibitor, single point]	–
COCCCNC(=O)c1sc2nc(C)c(C(=O)Nc3ccc(C)cc3C)c(-c3ccccc3Cl)c2c1N	inconclusive: 22.4 µM [inhibitor, partial curve, poor fit]	–
